B1: Caulobacter ParB omega fusion; a variant is named by its letters at X, in order, B8GW30 (parent)
chain: MESVVVGEPGMSEGRRGLGRGLSALLGEVDAAPAQAPGEQLGGSREAPIEILQRNPDQPRRTFREEDLEDLSNSIREKGVLQPILVRPSPDTAGEYQIVAGERAWRAAQRAGLKTVPIMVRELDDLAVLEIGIIENVQRADLNVLEEALSYKVLMEKFERTQENIAQTIGKSXSHVANXMRLLXLPDEVQSYLVSGELTAXHARAIAAAADPVALAKQIIEGGLSVRETEALARKAPNLSAGKSKGGRPPRVKDTDTQALESDLSSVLGLDVSIDHRGSTGTLTITYATLEQLDDLCNRLTRGI

Whole data set: some 81,000 sequences, median “one-hybrid fitness for binding parS DNA” near -0.17, cut for the highest 2% near 0.51. The list shows a part of the results.

In the experiment the parent is B1. Put plainly: one-hybrid fitness for binding parS DNA (scaled: cognate 1, non-cognate 0); higher = stronger binding. The conditions noted are these: with parS DNA site. In outline:
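Pre- and post-selection plasmids were Illumina-sequenced, three replicate libraries were pooled, and any variant with under 10 reads was removed. The libraries were Caulobacter ParB with four specificity codons randomised, selected in E. coli USO through a HIS3 reporter whose site is 19 bp from the promoter. Cells grew 48 hours at 37°C on M9 without histidine, with 0.1 mM IPTG and 5 mM 3-AT. Fitness is the log change in variant-to-wild-type read ratio, rescaled against cognate and non-cognate.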
In the case of KPHG, the “one-hybrid fitness for binding parS DNA” value was not above 0.2.

As for ITDR, the “one-hybrid fitness for binding parS DNA” value is not above 0.2. On to WTML, for which the “one-hybrid fitness for binding parS DNA” value was not above 0.2. Turning to PNPR, the “one-hybrid fitness for binding parS DNA” value was not above 0.2.

Turning to NFLR, the “one-hybrid fitness for binding parS DNA” value is not above 0.2.

For the variant IIKS, the “one-hybrid fitness for binding parS DNA” value is not above 0.2. On to NTEG, for which the “one-hybrid fitness for binding parS DNA” value is not above 0.2. Consider SLWA, for which the “one-hybrid fitness for binding parS DNA” value is not above 0.2. As to KRIN, the “one-hybrid fitness for binding parS DNA” value is not above 0.2. Consider GDRK, for which the “one-hybrid fitness for binding parS DNA” value is not above 0.2. Regarding GRKK, the “one-hybrid fitness for binding parS DNA” value was not above 0.2.

Turning to VAKG, the “one-hybrid fitness for binding parS DNA” value was not above 0.2. For CPIG, the “one-hybrid fitness for binding parS DNA” value is not above 0.2. TNNV: the “one-hybrid fitness for binding parS DNA” value was not above 0.2.

With GHRS, the “one-hybrid fitness for binding parS DNA” value was not above 0.2.

Regarding QIGC, the “one-hybrid fitness for binding parS DNA” value was not above 0.2. MKLG: the “one-hybrid fitness for binding parS DNA” value is not above 0.2. For FTEG, the “one-hybrid fitness for binding parS DNA” value is not above 0.2. In the case of TECF, the “one-hybrid fitness for binding parS DNA” value is not above 0.2. For CSGP the value was not above 0.2; for FNST, not above 0.2; for WILE, not above 0.2. Consider ISLY, for which the “one-hybrid fitness for binding parS DNA” value was not above 0.2.

As for CRKI, the “one-hybrid fitness for binding parS DNA” value is not above 0.2. Under MTQG stands not above 0.2; under LDFT, not above 0.2; under GYNM, not above 0.2.

Turning to TLRC, the “one-hybrid fitness for binding parS DNA” value was not above 0.2. Regarding RSHS, the “one-hybrid fitness for binding parS DNA” value was determined as 1. As to NKDG, the “one-hybrid fitness for binding parS DNA” value is not above 0.2. Turning to PSTA, the “one-hybrid fitness for binding parS DNA” value was not above 0.2. For EVSE the value was not above 0.2. Regarding PVES, the “one-hybrid fitness for binding parS DNA” value is not above 0.2. Take RPVP: the “one-hybrid fitness for binding parS DNA” value was not above 0.2. Consider ERHN, for which the “one-hybrid fitness for binding parS DNA” value is not above 0.2. FDHS: the “one-hybrid fitness for binding parS DNA” value is not above 0.2.

SHTN: the “one-hybrid fitness for binding parS DNA” value is not above 0.2. With RKYI, the “one-hybrid fitness for binding parS DNA” value is not above 0.2. Regarding KYRQ, the “one-hybrid fitness for binding parS DNA” value was not above 0.2. GGTG: the “one-hybrid fitness for binding parS DNA” value was not above 0.2. Turning to ICRD, the “one-hybrid fitness for binding parS DNA” value was not above 0.2. As for KQLG, the “one-hybrid fitness for binding parS DNA” value is not above 0.2. Turning to FQLR, the “one-hybrid fitness for binding parS DNA” value was not above 0.2. As for HAQC, the “one-hybrid fitness for binding parS DNA” value was not above 0.2.

For VTRS, the “one-hybrid fitness for binding parS DNA” value was not above 0.2. MEKS: the “one-hybrid fitness for binding parS DNA” value is not above 0.2.

For the variant RKAW, the “one-hybrid fitness for binding parS DNA” value was not above 0.2. RADN: the “one-hybrid fitness for binding parS DNA” value is 0.372. In the case of PWAI, the “one-hybrid fitness for binding parS DNA” value is not above 0.2. Under MLMT stands not above 0.2; under HHKT, not above 0.2; under RWII, not above 0.2.

Consider NDKS, for which the “one-hybrid fitness for binding parS DNA” value is not above 0.2. Under HGTT stands not above 0.2. For MMLC the value was not above 0.2; for ITQT, not above 0.2; for QLRP, not above 0.2. Take WIQC: the “one-hybrid fitness for binding parS DNA” value was not above 0.2. With LTMR, the “one-hybrid fitness for binding parS DNA” value was not above 0.2. As for TIMG, the “one-hybrid fitness for binding parS DNA” value is not above 0.2. Take NRTR: the “one-hybrid fitness for binding parS DNA” value is not above 0.2. For FKQR the value was not above 0.2. Take QVGR: the “one-hybrid fitness for binding parS DNA” value was not above 0.2. As for QAEK, the “one-hybrid fitness for binding parS DNA” value was not above 0.2.

With CSAE, the “one-hybrid fitness for binding parS DNA” value was not above 0.2. For DNSD the value was not above 0.2; for CGET, not above 0.2; for SSYY, not above 0.2. In the case of FFQR, the “one-hybrid fitness for binding parS DNA” value is not above 0.2. In the case of LYYR, the “one-hybrid fitness for binding parS DNA” value was not above 0.2.

Take HMGC: the “one-hybrid fitness for binding parS DNA” value is not above 0.2. As to PLAN, the “one-hybrid fitness for binding parS DNA” value is not above 0.2.

Consider HPAI, for which the “one-hybrid fitness for binding parS DNA” value was not above 0.2.

Regarding RAMK, the “one-hybrid fitness for binding parS DNA” value is not above 0.2.

Consider GPIF, for which the “one-hybrid fitness for binding parS DNA” value is not above 0.2.

Take NKDH: the “one-hybrid fitness for binding parS DNA” value is not above 0.2.

The values above are taken from a collection of fitness landscapes (doi:10.1016/j.celrep.2020.107928).
